B1: non-β2m-associated HLA-B57 IgG4 fusion protein (Fc fusion)
MHC heavy: GSHSMRYFYTAMSRPGRGEPRFIAVGYVDDTQFVRFDSDAASPRMAPRAPWIEQEGPEYWDGETRNMKASAQTYRENLRIALRYYNQSEAGSHIIQVMYGCDVGPDGRLLRGHDQSAYDGKDYIALNEDLSSWTAADTAAQITQRKWEAARVAEQLRAYLEGLCVEWLRRYLENGKETLQRADPPKTHVTHHPISDHEATLRCWALGFYPAEITLTWQRDGEDQTQDTELVETRPAGDRTFQKWAAVVVPSGEEQRYTCHVQHEGLPKPLTLRWEPSSQSGGGGSGGGGS[letters of human IgG4 Fc with S228P (EU numbers) omitted]
notes: β2m removed under acidic conditions; also called HLA-B57-Fc; natural HLA-B57-derived fusion protein control
B2: non-β2m-associated HLA-B57(A46E/V97R) IgG4 fusion protein (Fc fusion)
MHC heavy: GSHSMRYFYTAMSRPGRGEPRFIAVGYVDDTQFVRFDSDAASPRMEPRAPWIEQEGPEYWDGETRNMKASAQTYRENLRIALRYYNQSEAGSHIIQRMYGCDVGPDGRLLRGHDQSAYDGKDYIALNEDLSSWTAADTAAQITQRKWEAARVAEQLRAYLEGLCVEWLRRYLENGKETLQRADPPKTHVTHHPISDHEATLRCWALGFYPAEITLTWQRDGEDQTQDTELVETRPAGDRTFQKWAAVVVPSGEEQRYTCHVQHEGLPKPLTLRWEPSSQSGGGGSGGGGS[letters of human IgG4 Fc with S228P (EU numbers) omitted]
notes: β2m separated by size exclusion chromatography at pH 3.0; also called HLA-B57^(A46E/V97R)-Fc; variant HLA-B57 fusion protein

Legend:
[1] = target: T1, LILRB2 (c-terminally biotinylated, BPS Bioscience #100335) (human, UniProt Q8N423 22-460, limits assumed, C-terminal biotin); experiment: ELISA, biotinylated LILRB2 on streptavidin plates, detection with APC anti-human IgG
T1 construct: Bought biotinylated protein; also called human LILRB2; biotinylated LILRB2

[2] = target: T1, LILRB2 (c-terminally biotinylated, BPS …); experiment: BLI (Octet Red 96e), biotinylated LILRB2 on streptavidin sensors, bivalent analyte model

T1 sequence (Q8N423 22-460 limits assumed): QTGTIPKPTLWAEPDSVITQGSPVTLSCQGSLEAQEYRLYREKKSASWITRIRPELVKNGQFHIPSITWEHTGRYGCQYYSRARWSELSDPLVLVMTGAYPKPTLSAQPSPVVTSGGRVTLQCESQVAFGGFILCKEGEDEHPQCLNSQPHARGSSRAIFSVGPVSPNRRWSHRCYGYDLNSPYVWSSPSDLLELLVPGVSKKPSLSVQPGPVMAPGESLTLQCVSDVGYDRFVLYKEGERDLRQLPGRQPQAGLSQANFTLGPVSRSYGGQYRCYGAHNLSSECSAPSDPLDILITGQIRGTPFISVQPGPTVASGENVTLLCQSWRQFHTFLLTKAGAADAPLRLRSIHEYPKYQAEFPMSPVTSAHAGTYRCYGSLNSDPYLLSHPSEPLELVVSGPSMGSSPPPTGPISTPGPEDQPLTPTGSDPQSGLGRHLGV

Row | Binder | EC50 [1] [µM] | Kd [2] [µM]
1 | B1 | 0.021 | –
2 | B2 | 0.0083 | 0.0203

Source: patent US20240366718A1 (IMMUNOS THERAPEUTICS, published 2024)
